Assay results: PubChem BioAssay AID1963318 (National Center for Advancing Translational Sciences (NCATS), 2024)
Out of some 1,300 compounds screened, about 100 (7.7%) were called active. The shares of active, inactive and inconclusive entries below differ from those in the screen. The call rests on the fitted dose curve; in most records, active means well fitted activation curve with a large enough effect; inconclusive means small, poorly fitted or top-dose-only effect; inactive means no such curve, though single readings can be large or run the other way. Potencies of inconclusive entries are doubtful fits and often do not repeat.

target: Luciferin 4-monooxygenase (Photinus pyralis) (UniProt P08659); experiment: Firefly luciferase (FLuc-C-HiBiT) SDR gain of signal screen - without ATP; conditions: Purified FLuc-C-HiBiT, Nano-Glo HiBiT luminescence, no ATP; series mostly up to 32.7 µM; activation (signal gain): at the top concentration; further: nearly all actives have a fitted effect of over 55% in size
Outline: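 10 nM FLuc-C-HiBiT, no ATP; pin-tool compound transfer; >30 min RT, dark; + Nano-Glo HiBiT reagent, 5-10 min RT; CCD luminescence read. Enzyme-free buffer wells as background.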
Potency means the concentration at half of the fitted maximal effect; tags describe the fitted curve by direction and shape.

UniProt P08659, sequence (P08659 whole entry, looked up): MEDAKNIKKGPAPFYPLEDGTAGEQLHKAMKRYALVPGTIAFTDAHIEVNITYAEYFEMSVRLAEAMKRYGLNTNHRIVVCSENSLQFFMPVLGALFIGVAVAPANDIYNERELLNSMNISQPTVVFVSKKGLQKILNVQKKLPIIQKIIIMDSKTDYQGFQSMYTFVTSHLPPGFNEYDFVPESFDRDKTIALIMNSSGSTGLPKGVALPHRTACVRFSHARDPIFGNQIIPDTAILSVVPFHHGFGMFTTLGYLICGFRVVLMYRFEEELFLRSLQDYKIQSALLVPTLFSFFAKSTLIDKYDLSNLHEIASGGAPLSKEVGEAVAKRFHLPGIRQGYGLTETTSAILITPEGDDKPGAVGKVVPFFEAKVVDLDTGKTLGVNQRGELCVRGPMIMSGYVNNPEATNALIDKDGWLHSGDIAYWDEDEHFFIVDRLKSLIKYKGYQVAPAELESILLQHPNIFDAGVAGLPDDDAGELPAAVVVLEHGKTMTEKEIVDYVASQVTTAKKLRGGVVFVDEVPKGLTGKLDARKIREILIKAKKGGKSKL

SMILES	Potency	activation (signal gain)
O=C(Nc1cccc(Cl)c1)c1cc(-c2ccc3c(c2)OCCO3)on1	inconclusive: 1.97 µM [activator, full curve, poor fit]	–
Cc1ccc(-n2ncc3c(N(C)Cc4ccccc4)ncnc32)cc1	inconclusive: 12.4 µM [activator, partial curve]	–
O=C(Cc1cccc(F)c1)N1CC(Oc2ccc(-c3nc(-c4ccccc4)no3)cc2)C1	–	inactive: 13.5%
O=C(Nc1cnc(-c2ccccc2)nc1)C1CCCCC1	inconclusive: 3.51 µM [activator, full curve, poor fit]	–
CCn1cnnc1CC1CCN(C(=O)c2cc(-c3ccc(C)c(C)c3)nc3ccccc23)CC1	inconclusive: 11.1 µM [activator, partial curve]	–
Cc1ccc(Cl)cc1NC(=O)c1cc(-c2ccc3c(c2)OCCO3)on1	inconclusive: 4.95 µM [activator, full curve, poor fit]	–
CN(C)c1ccc(-c2nc(C3CCOC3)no2)cc1 (stereo not drawn)	–	inactive: 24.5%
O=C([C@@H]1C[C@@H](O)[C@H](O)[C@@H]2NC(=S)N(c3ccc4c(c3)OCO4)[C@@H]21)N1CCOCC1	–	inactive: 12.2% [at 49.3 µM]
Cc1ccc(/C=C/c2nc3ccccc3[nH]2)cc1	active: 0.394 µM	–
O=C1c2cnc(-c3cccc(CO)c3)nc2OCCN1c1ccccc1	active: 20.2 µM	–
CCOc1ccc2nc(NC(=O)c3ccccc3)sc2c1	inconclusive: 6.24 µM [activator, partial curve]	–
O=C1c2cnc(-c3cc4ccccc4o3)nc2OCCN1Cc1ccccc1	inconclusive: 25.5 µM [activator, partial curve]	–
Cc1cc(C)cc(C(=O)NCCn2ccn3nc(-c4ccc(C)cc4C)cc3c2=O)c1	–	inactive: 21.9%
CCOc1ccc(-c2cc3c(=O)n(CCNC(=O)c4ccncc4)ccn3n2)cc1	inconclusive: 7.85 µM [activator, partial curve]	–
COc1cccc(-c2noc(-c3ccc(N4CCCC(CO)C4)nc3)n2)c1OC (stereo not drawn)	inconclusive: 14 µM [activator, partial curve]	–
CCCOc1ccccc1C(=O)Nc1ccc(-c2nc3ccc(C)cc3s2)cc1	inconclusive: 14 µM [activator, partial curve, poor fit]	–
C[C@H](C(=O)N1CCOCC1)C1CC[C@@]2(C)Cc3sc(-c4ccccc4)nc3[C@@H](C)[C@@H]2[C@H]1O (stereo partly drawn)	active: 6.24 µM	–
CCC(C)(C)NC(=O)c1cccc2c1CCN2C(=O)Nc1cccc(C)c1	inconclusive: 12.4 µM [activator, partial curve, poor fit]	–
COCCN1CCOc2nc(-c3cc(F)cc(OC)c3)ncc2C1=O	inconclusive: 20.2 µM [activator, partial curve]	–
Cc1ccc(-c2cc3c(=O)n(CCNC(=O)c4cccc5[nH]ccc45)ccn3n2)cc1C	–	inactive: 22.9%
N#Cc1ccc(C(=O)Nc2ccccc2-c2nc3ccccc3s2)c(F)c1	–	inactive: 14.3%
Cc1ccc(-c2cc3c(=O)n(CCNC(=O)Cc4ccsc4)ccn3n2)c(C)c1	inconclusive: 14 µM [activator, partial curve]	–
Cn1ccc2c(C(=O)NCCc3cnc[nH]3)nc(-c3ccc(N4CCOCC4)cc3)cc21	inconclusive: 16.1 µM [activator, partial curve]	–

SMILES	Potency	activation (signal gain)
Cc1ccc(-c2nc(-c3ccccn3)no2)cc1Cl	active: 4.42 µM	–
Cc1ccc(CNC(=O)Nc2cccc(-c3ccc(N4CCOCC4)nn3)c2)cc1	inconclusive: 12.4 µM [activator, partial curve]	–
O=C(Nc1ccccc1)c1nc2c(o1)CCN(Cc1ccccn1)CC2	–	inactive: 26% [at 49.3 µM]
Cc1ccc(NC(=O)Nc2ccc(C)n(CC(=O)NC3CCCC3)c2=O)cc1	active: 1.57 µM	–
COc1ccc(C(=O)Nc2ccc3n(c2=O)C[C@H]2C[C@@H]3CN(C(=O)CCCC(=O)O)C2)cc1	inconclusive: 15.7 µM [activator, partial curve, poor fit]	–
CCN(CC)S(=O)(=O)c1ccc2nc(NC(=O)c3cccnc3)sc2c1	–	inactive: 16%
Cc1ccn2c(Nc3ccc(C(C)C)cc3)c(-c3cccs3)nc2c1	–	inactive: 17.1%
COc1ccc(-c2ncc3c(n2)OCCN(c2ccccc2)C3=O)cc1F	inconclusive: 9.04 µM [activator, partial curve, poor fit]	–
CC(C)(C)n1cc(-c2cc(C(=O)N3C[C@H]4CC[C@H]3C4)c3ccccc3n2)cn1	inconclusive: 11.1 µM [activator, partial curve]	–
Cc1ccc(-c2noc(-c3ccccc3Br)n2)cc1	inconclusive: 7.85 µM [activator, partial curve, poor fit]	–
Cc1cccc(OCCc2noc(C3CN(C(=O)Nc4ccc5c(c4)OCCO5)C3)n2)c1	inconclusive: 12.4 µM [activator, partial curve, poor fit]	–
COc1ccc(C(=O)NC2CCCN(c3cc(-c4ccc(Cl)cc4)[nH]n3)C2)cc1OC (stereo not drawn)	–	inactive: 26%
Cc1ccc(C(=O)Nc2cccc(-c3ccc(N4CCN(C)CC4)nn3)c2)cc1C	inconclusive: 14 µM [activator, partial curve, poor fit]	–
CC(=O)Nc1cccc(-c2ccc(COc3ccc4c(cnn4CCC(=O)O)c3)cc2)c1	inconclusive: 2.02 µM [activator, full curve]	–
C=Cc1ccc(-c2nc3ccc(OC)cc3s2)cc1	active: 12.4 µM	–
COc1ccc(-c2cc3c(=O)n(CCNC(=O)c4c(F)cccc4Cl)ccn3n2)cc1	inconclusive: 12.4 µM [activator, partial curve, poor fit]	–
COc1cccc(CN2CCNc3cc(Nc4ccccc4)ncc3C2)c1	–	inactive: 20.9% [at 49.3 µM]
CSCC(=O)Nc1nc2c(s1)C[C@]1(C)CC[C@@H]3[C@H](OC(=O)[C@H]3C)[C@H]1[C@@H]2C	inconclusive: 18 µM [activator, partial curve, poor fit]	–
Cc1ccc(Cl)cc1-n1ncc2c(N3CCC(C(N)=O)CC3)ncnc21	–	inactive: 12%
CC(=O)Nc1cccc(-c2cccc(CCOc3cnc4c(ccn4CC(=O)O)c3)c2)c1	inconclusive: 22.7 µM [activator, partial curve, poor fit]	–
O=c1c2nc(N3CCC(c4ccccc4)CC3)ccc2ncn1C1CC1	active: 20.2 µM	–
Cc1cn2nc(C(=O)Nc3ccc(C(=O)N4CCCC4)cc3)cc2c(=O)[nH]1	inconclusive: 15.7 µM [activator, partial curve]	–
Cc1cccc(-n2ncc3c(N4CCCC(C)C4)ncnc32)c1 (stereo not drawn)	active: 3.94 µM	–

SMILES	Potency	activation (signal gain)
Cc1ccc(C2=NC3(CCN(C(=O)c4cccc(N(C)C)c4)CC3)ON2)cc1	–	inactive: 21%
COc1ccc(NC(=O)Nc2cccc(-c3ccc(N4CCOCC4)nn3)c2)cc1F	inconclusive: 4.95 µM [activator, full curve]	–
COc1ccc(-c2cc(N3CCCC(NC(=O)c4ccc(OC)c(OC)c4)C3)n[nH]2)cc1 (stereo not drawn)	inconclusive: 14 µM [activator, partial curve, poor fit]	–
CN(CCc1cn[nH]c1)c1ccc(-c2nc(-c3ccccc3F)no2)cn1	inconclusive: 7 µM [activator, partial curve, poor fit]	–
Cc1ccc(NC(=O)c2ccc(CN3C(=O)NC4(CCOCC4)C3=O)cc2)cc1C	inconclusive: 12.4 µM [activator, partial curve, poor fit]	–
CC(=O)c1cccc(-c2nc3ccccc3s2)c1	inconclusive: 24.8 µM [activator, partial curve, poor fit]	–
COC(=O)c1c(-c2cccs2)csc1NC(=O)c1ccc(C)cc1	–	inactive: 10.8%
COc1cccc(C(=O)Nc2ccc3nc(SCC(=O)N4CCOCC4)sc3c2)c1	inconclusive: 15.7 µM [activator, partial curve, poor fit]	–
COc1cccc(-c2nc(-c3ccc(C(=O)O)cc3)no2)c1	inconclusive: 14 µM [activator, partial curve]	–
Clc1cccc(-c2nc(-c3ccccn3)no2)c1	active: 3.94 µM	–
Cc1csc(NC(=O)c2nc3c(o2)CCN(Cc2cccc(F)c2)CC3)n1	–	inactive: 31.1% [at 49.3 µM]
O=C(O)c1ccc(-c2noc(-c3ccc(C(F)(F)F)cc3)n2)cc1	inconclusive: 12.4 µM [activator, partial curve]	–
Fc1ccccc1Cc1cn2cc(-c3ccc(Cl)cc3)nc2s1	–	inactive: 20.1%
COc1ccccc1-c1nc(-c2cccc(C(=O)O)c2)no1	active: 8.81 µM	–
OCc1cn(CC2CCN(c3ncnc4nc[nH]c34)CC2)nn1	–	inactive: 9.19%
Cc1ccc(-c2cc(C(=O)O)n(C)c2)cc1	–	inactive: 10.8%
Cc1ccc(-c2cc3c(=O)n(CCNC(=O)Cc4cccc(F)c4)ccn3n2)c(C)c1	inconclusive: 12.4 µM [activator, partial curve, poor fit]	–
Cc1cccc(C(=O)Nc2nc3c(s2)CCCC3)c1	inconclusive: 12.4 µM [activator, partial curve, poor fit]	–
CNC(=O)c1cccc2c1CCN2C(=O)Nc1ccc(C)cc1	active: 11.1 µM	–
Cc1noc(-c2cccn3c(CNC(=O)c4ccc(C(C)(C)C)cc4)nnc23)n1	inconclusive: 12.4 µM [activator, partial curve]	–
c1coc(-c2nc3nccc(-c4ccc5c(c4)OCCCO5)n3n2)c1	inconclusive: 0.881 µM [activator, full curve, poor fit]	–
O=C1NCCCCCCN(C(=O)Nc2ccc3c(c2)OCCO3)[C@H]2CCC[C@@H]12	inconclusive: 11.1 µM [activator, partial curve]	–
